This is one part of the list.

The test concerns T1, C. trachomatis L2/434/Bu expressing GFP (CTL2-GFP).
T1 construct: L2/434/Bu GFP intracellular growth in HeLa cells
Further details: species or system HeLa; C. trachomatis total inclusion area by high-content imaging, normalised to DMSO. The conditions noted are these: total inclusion area; 28.5 h, 10 µM; inhibitor. The method, boiled down:
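High-content imaging followed the bulk GFP/resorufin measurement: fixed, Hoechst-stained cells were scored for GFP inclusions and host nuclei per well. Total inclusion area and count served as growth proxies, nuclei number as the viability proxy. MIC calculation matched the bulk assay.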
Regarding `Cc1ccc(CN(CCCn2ccnc2)Cc2ccncc2)o1` [CBK283101], the “% of control remaining” value is 70.7994.
Under `Cc1ccc(C)c(C2CCCN2C(=O)Cn2cc(C(=O)NCc3ccccc3)ccc2=O)c1` (stereo not drawn) [CBK286052] stands 95.8367; under `Cc1ccc(C)c(C(=O)C2=C(O)C(=O)N(CCCN3CCOCC3)C2c2ccncc2)c1` (stereo not drawn) [CBK265492], 111.376; under `O=C(c1ccccc1)N1C[C@H](c2ccc(F)cc2)[C@H]2CN(Cc3ccccc3F)CC[C@H]21` [CBK286289], 101.057.
Under `CN1CCN(CCOC(=O)N2CCC(C(F)(F)F)CC2)CC1` [CBK200206] stands 94.256; under `CCc1nc2ccc(C(=O)N3CCN(c4ccccc4)CC3)cn2c1N(C)C(=O)Nc1ccccc1OC` [CBK145886], 133.522; under `CC1=C(C(=O)Nc2ccc(Cl)cc2Cl)SCCO1` [CBK057784], 65.2684.
On to `OCC1COCCN(c2ncnc3c2CCC3)C1` (stereo not drawn) [CBK304373], for which the “% of control remaining” value is given as 73.1424.
For `COc1cncc(-c2cc(Nc3cc(OC)c(OC)cc3C)ncn2)c1` [CBK090782] the value was 83.6747.
Under `O=C(COc1ccc2ccccc2c1)Nc1ccc(CN2CCOCC2)cc1` [CBK265754] stands 145.776.
In the case of `Cc1ccc2nc(-c3ccncc3)cc(C(=O)N3CCN(c4ncccn4)CC3)c2c1` [CBK267751], the “% of control remaining” value worked out at 94.1741.
For `O=C(CSc1nnc(-c2ccc(Cl)cc2Cl)o1)c1cc2ccccc2oc1=O` [CBK268698] the value was 101.846; for `Cc1cc(Cl)ccc1OCC(O)CN1CCN(Cc2ccc3c(c2)OCO3)CC1` (stereo not drawn) [CBK074383], 89.288.
Regarding `Cc1ccc(S(=O)(=O)N(C)CC(=O)N(C)Cc2ccccc2)cc1` [CBK264201], the “% of control remaining” value is 103.816.
For `O=S(=O)(Nc1nnc(C(F)(F)F)s1)c1ccc(-c2ccccn2)s1` [CBK062016] the value was 82.4433.
For `Cn1c2c(c3ccccc31)CCOC21CCNCC1` [CBK081142] the value was 83.4694; for `O=C1CC(/C=C/c2ccccc2)Cc2[nH]c(=O)c(C(=O)O)cc21` (stereo not drawn) [CBK286933], 96.1425.
For `CC(C)Nc1cncc(OCc2cccnc2)n1` [CBK115879] the value was 103.123.
Consider `Cc1nn(C)c(Cl)c1S(=O)(=O)Nc1cccnc1N1CCOCC1` [CBK062286], for which the “% of control remaining” value stood at 97.4008.
On to `COc1ccc([C@H]2CN(C(=O)c3ccccc3)[C@@H]3CCN(Cc4ccccc4)C[C@H]23)cc1` [CBK285592], for which the “% of control remaining” value stood at 85.3679.
For `COc1ccc(C(=O)CSc2nnc(C(O)c3ccccc3)n2-c2ccccc2)cc1` (stereo not drawn) [CBK265104] the value was 109.219; for `COc1ccc(CNC(=O)N(CCc2ccccc2)CC(C)(C)CN)cc1` [CBK000463C], 56.8545.
Under `CN(C)c1ncccc1CNC(=O)c1ccccn1` [CBK297774] stands 94.9926; under `CN(CC1CCCOC1)C(=O)c1ncsc1Nc1ccccc1` (stereo not drawn) [CBK304250], 71.1705.
`Cc1ccc(C)c(-c2csc3c(=O)[nH]cnc23)c1` [CBK288556]: the “% of control remaining” value is recorded as 105.274.
Under `O=c1/c(=C/c2ccncc2)sc2n1CN(c1cccc(F)c1)CN=2` [CBK264340] stands 94.4639.
For `COc1ccc(/C(N)=N/OC(=O)C(C)Oc2ccc(Br)cc2)cc1OC` (stereo not drawn) [CBK266807] the value was 98.4158.
Under `CC(C)COc1ccc(-c2nn(-c3ccccc3)cc2CSC(=N)N)cc1` [CBK264278C] stands 0.1325.
For the compound `O=C(NCCOc1ccc(-c2ccc(F)cc2)nn1)c1ccc(Br)o1` [CBK294429], the “% of control remaining” value was 108.289.
Under `O=C(c1cncnc1)N1CCN(C(=O)c2ccco2)CC1` [CBK144477] stands 110.58.
For `CCCNS(=O)(=O)c1cc2c3c(c1)c(C)cc(=O)n3CCC2` [CBK307547] the value was 35.4799.
`O=C(CN1CCOCC1)Nc1sc2c(c1C(=O)Nc1ccc(Cl)cc1)CCC2` [CBK265056]: the “% of control remaining” value is 104.315.
Turning to `O=C(O)C1CCCN1C(=O)c1ccc(C#CC2(O)CCCCC2)cc1` (stereo not drawn) [CBK287022], the “% of control remaining” value is 102.576.
With `CCCCOc1ccc(S(=O)(=O)N2CCN(c3cccc(C)c3C)CC2)cc1` [CBK099293], the “% of control remaining” value turned out to be 96.7357.
For `CCN(CC)CC(O)Cn1c(-c2ccccc2Cl)nc2ccccc21` (stereo not drawn) [CBK262495] the value was 114.984; for `CCOC(=O)c1cnc(SC)nc1N1CCOCC1` [CBK018971], 30.986; for `CCCc1nc(CN2CCNC(=O)C2c2ccccc2C(F)(F)F)no1` (stereo not drawn) [CBK304123], 89.1875.
With `O=C1COCC(=O)N1c1ccccn1` [CBK006233], the “% of control remaining” value is 46.1032.
`O=C(Nc1ccc2c(c1)OCO2)Nc1c(Br)cnc2ncccc12` [CBK105596]: the “% of control remaining” value turned out to be 90.4192.
For `Brc1n[nH]c2nc(NCc3ccco3)ncc12` [CBK022327] the value was 90.9198; for `CC(=O)C(Sc1nc(N2CCOCC2)nc(N2CCOCC2)n1)C(=O)Nc1ccccc1` (stereo not drawn) [CBK266643], 111.776; for `CCCC(=O)c1ccc(S(=O)(=O)N2CCCN(Cc3ccc(F)c(C#N)c3)CC2)cc1` [CBK062910], 84.0319.
With `O=C(NCCN1CCC(O)(c2cccc(F)c2)CC1)C1CC=CCC1` (stereo not drawn) [CBK282451], the “% of control remaining” value was 99.0566.
Consider `CC(C)(C)NC(=O)COc1ccc(CNc2nc[nH]n2)cc1` [CBK288179], for which the “% of control remaining” value amounted to 105.684.
Under `C[C@H](Nc1nc(-c2cccc(/C=C/C(=O)O)c2)cnc1N)c1ccccc1` [CBK063754] stands 106.208; under `CC(=O)c1ccc(OCc2nc(N)nc(Nc3ccccc3)n2)cc1` [CBK297155], 88.9561.
For `CCOC(=O)CC(=O)CSc1nc(N)c2c3c(sc2n1)CCCC3` [CBK264942] the value was 93.1862; for `COc1cccc(NC(=O)CCCC(=O)O)c1` [CBK261324], 106.399.
Under `CNC(=O)CCc1ccccc1NC(=O)NCc1cnc(SC)n1C` [CBK307507] stands 92.2627.
For `COc1cc(-c2nc3ccccn3c2/N=C/c2ccc(-c3ccc([N+](=O)[O-])cc3)o2)ccc1O` [CBK262288], the “% of control remaining” value is given as 86.2031.
On to `COc1cc(C)c(CN2CCN(C(=O)COc3cc4ccccc4cc3C(=O)O)CC2)cc1OC` [CBK296968], for which the “% of control remaining” value was 72.477.
